# Source: PubChem BioAssay AID1460 (National Center for Advancing Translational Sciences (NCATS), 2008)
# About 5,800 (2.1%) of roughly 270,000 compounds were called active. Inconclusive results, whose numbers are uncertain, are shown with a selection of clear calls. The call rests on the fitted dose curve; in most records, active means well fitted inhibition curve with a large enough effect; inconclusive means small, poorly fitted or top-dose-only effect; inactive means flat fitted curve, though single readings scatter. Potencies of inconclusive entries are doubtful fits and often do not repeat.
# Target: Microtubule-associated protein tau (Homo sapiens) (UniProt P10636)
# Test: qHTS for Inhibitors of Tau Fibril Formation, Thioflavin T Binding; further: nearly all actives have a fitted effect of over 55% in size
# Details: recombinant tau K18 P301L (four-repeat tau fragment), heparin-induced fibrillization, ThT fluorescence; series mostly up to 57.4 µM
# Procedure, shortened: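 K18 P301L tau (15 uM + 0.24 uM Alexa 594-tagged), heparin 20 uM, NaOAc pH 7, 6 h 37 C; ThT 30 uM, 1 h RT, ex 450/em 510 nm.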
# Potency means the concentration at half of the fitted maximal effect; tags describe the fitted curve by direction and shape.
# Sequence of UniProt P10636 (P10636 whole entry, looked up): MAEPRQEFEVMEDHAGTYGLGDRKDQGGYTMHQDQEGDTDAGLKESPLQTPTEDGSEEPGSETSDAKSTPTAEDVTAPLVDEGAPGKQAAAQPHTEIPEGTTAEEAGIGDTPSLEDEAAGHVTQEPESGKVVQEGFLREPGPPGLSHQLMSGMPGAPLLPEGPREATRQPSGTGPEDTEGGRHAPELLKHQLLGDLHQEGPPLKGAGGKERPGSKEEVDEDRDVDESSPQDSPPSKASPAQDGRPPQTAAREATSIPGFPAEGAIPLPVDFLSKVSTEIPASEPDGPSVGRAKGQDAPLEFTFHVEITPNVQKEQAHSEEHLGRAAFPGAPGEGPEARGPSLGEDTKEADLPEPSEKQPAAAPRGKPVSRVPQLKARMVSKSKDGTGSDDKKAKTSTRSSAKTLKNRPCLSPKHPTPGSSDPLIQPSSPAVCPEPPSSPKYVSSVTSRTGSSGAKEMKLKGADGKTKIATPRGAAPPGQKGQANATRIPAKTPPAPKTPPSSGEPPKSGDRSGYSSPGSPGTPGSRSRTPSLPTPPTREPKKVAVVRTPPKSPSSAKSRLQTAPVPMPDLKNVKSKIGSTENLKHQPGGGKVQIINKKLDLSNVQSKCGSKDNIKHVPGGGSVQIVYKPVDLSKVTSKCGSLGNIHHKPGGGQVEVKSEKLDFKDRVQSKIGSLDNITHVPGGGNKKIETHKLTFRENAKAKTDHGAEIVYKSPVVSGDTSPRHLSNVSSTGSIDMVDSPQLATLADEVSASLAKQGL
row,SMILES,Potency
1,COc1ccc(NC(=O)Cn2cnc3sc(C)c(S(=O)(=O)N4CCN(C)CC4)c3c2=O)cc1OC,inactive
2,Cc1ccc(C)c(NC(=O)Cn2cc(C(=O)c3ccncc3)c(=O)c3cc(F)ccc32)c1,"inconclusive: 22.4 µM [inhibitor, single point]"
3,COc1ccccc1CNc1ccc(-c2nc(C(C)C)no2)cc1[N+](=O)[O-],inactive
4,C=CCSc1nnc2n(-c3ccccc3OC)c(=O)c3c4c(sc3n12)CCC4,inactive
5,CCOC(=O)c1c(C)[nH]c(N=Nc2ccccc2C)c1C,active: 5.01 µM
6,Cc1c(Cl)ccc2sc(N3CCN(C(=O)c4ccco4)CC3)nc12,"inconclusive: 10 µM [inhibitor, partial curve]"
7,CC1(C)CCC(C)(C)NC(=S)N1,inactive
8,COc1ccc2c(c1)CCc1c(C(=O)NCC(C)C)noc1-2,"inconclusive: 20 µM [inhibitor, partial curve]"
9,O=C(c1ccc(S(=O)(=O)NCC2CCCO2)cc1)N1CCN(c2cccc(Cl)c2)CC1 (centres undefined),inactive
10,Cn1c(-c2nnn(-c3ccc(F)cc3)n2)cc2ccccc21,"inconclusive: 25.1 µM [inhibitor, single point]"
11,O=C(CSc1nnc(-c2cnccn2)n1Cc1ccco1)c1ccc(Cl)cc1,"inconclusive: 22.4 µM [inhibitor, single point]"
12,Cc1nn(C)cc1/C=N/NC(=O)c1sc2ccccc2c1Cl,"inconclusive: 2.82 µM [inhibitor, full curve]"
13,Cc1cc(/C=C(\C#N)C(=O)Nc2ccc(Cl)cc2)c(C)n1-c1ccc(N2CCOCC2)c([N+](=O)[O-])c1,"inconclusive: 3.55 µM [inhibitor, full curve]"
14,O=C1c2ccc(O)c(O)c2C(=O)c2c(O)ccc(O)c21,active: 1.41 µM
15,CCOc1ccc(C(=O)NCCn2cc(SCC(=O)NCCc3ccc(OC)c(OC)c3)c3ccccc32)cc1,"inconclusive: 3.16 µM [inhibitor, full curve]"
16,CCN(CC)CCNC(=O)c1cc(Sc2nnc(C)s2)nc2ccccc12,inactive
17,Cc1cccc(C(=O)NNC2=C(C(=O)C(F)(F)F)CCC2)c1O,"inconclusive: 12.6 µM [inhibitor, partial curve]"
18,COC(=O)c1ccc(Nc2ncnc3c2nc2n3CCCC2)cc1,inactive
19,CCOc1ccc(C(=O)N/N=C(\c2ccccc2)c2ccccn2)cc1,"inconclusive: 12.6 µM [inhibitor, partial curve]"
20,Cc1cccc(C)c1NC(=O)CN1C(=O)S/C(=C\c2cccn2-c2cccc(C(=O)O)c2)C1=O,inactive
21,O=C(CC1N=C2c3ccccc3N=C(SCc3ccccc3Cl)N2C1=O)NCc1ccco1 (centres undefined),"inconclusive: 31.6 µM [inhibitor, partial curve]"
22,CCCS(=O)(=O)Nc1c(C(=O)O)[nH]c2ccc(OC)cc12,"inconclusive: 15.8 µM [inhibitor, single point]"
23,O=C(OCc1nnc(-c2ccccc2)o1)c1cc2ccccc2cc1O,"inconclusive: 3.55 µM [inhibitor, full curve]"

row,SMILES,Potency
1,O=C(CC(Nc1ccccc1)C(=O)O)c1ccccc1 (centres undefined),"inconclusive: 12.6 µM [inhibitor, partial curve]"
2,COc1ccc(-c2nnc(SCC(=O)NCc3ccco3)n2C)cc1,"inconclusive: 39.8 µM [inhibitor, partial curve, poor fit]"
3,Cc1c(C(=O)NNC(=S)Nc2cccc(Cl)c2)nnn1-c1ccccc1,"inconclusive: 7.94 µM [inhibitor, partial curve]"
4,CCC1CN(C(=O)N2CCC(C(=O)NCc3ccc(OC)cc3OC)CC2)c2cc(C)ccc2O1 (centres undefined),inactive
5,Cc1cc2oc(=O)cc(-c3ccccc3)c2c(C)c1-c1ccc(O)cc1,"inconclusive: 0.501 µM [inhibitor, full curve, poor fit]"
6,Cc1[nH]c2ccccc2c1C(=O)COc1ccccc1,"inconclusive: 15.8 µM [inhibitor, partial curve]"
7,Cc1[nH]c2ccccc2c1N=Nc1ccccc1C(=O)O,"inconclusive: 1.58 µM [inhibitor, partial curve]"
8,COc1ccc(CNc2nc(-c3ccc(C(=O)N(C)C)cc3)nc3ccccc23)c(OC)c1,inactive
9,COc1ccc2cc(C(=O)NCc3ccco3)c(=Nc3ccc(C(=O)O)cc3)oc2c1,"inconclusive: 11.2 µM [inhibitor, partial curve]"
10,COc1ccc(/C=N/Nc2nccnc2Cl)c(OC)c1,"inconclusive: 14.1 µM [inhibitor, partial curve]"
11,Cc1ccc(NC(=O)Cn2c(-c3ccc4c(c3)OCO4)cn(-c3ccccc3)c2=O)cc1C,"inconclusive: 11.2 µM [inhibitor, partial curve]"
12,O=C(Cn1cnc2cc([N+](=O)[O-])ccc2c1=O)Nc1ccc2c(c1)OCO2,"inconclusive: 22.4 µM [inhibitor, single point]"
13,Brc1ccc(OCCCN2CCOCC2)cc1,inactive
14,CCOC(=O)c1c(Nc2ccccc2)sc(/C=C2\C=Nc3ccccc32)c1O,inactive
15,Fc1ccccc1N=C1Nc2cccc3cccc1c23,"inconclusive: 20 µM [inhibitor, single point]"
16,COCCn1nnnc1CN1CCOCC1,inactive
17,CC1C/C(=N/NC(=O)c2ccc(CSc3nc4ccccc4[nH]3)cc2)CC(C)(C)C1 (centres undefined),inactive
18,Cc1ccc(/C=C/C2=NN(Cc3ccccc3Cl)C(=O)CC2)cc1,"inconclusive: 28.2 µM [inhibitor, partial curve, poor fit]"
19,Cc1cccc(C(=O)N/N=C/c2ccc(OCC(=O)N3CCCCC3)cc2)c1,"inconclusive: 3.55 µM [inhibitor, partial curve, poor fit]"
20,O=C(Nc1cc(Oc2ccc(Cl)cc2)cc([N+](=O)[O-])c1)c1ccco1,inactive
21,CCCNS(=O)(=O)c1ccc(OCC(=O)N2CCCC2)cc1,inactive
22,COc1ccc(-c2nn(C)c3sc(C(=O)Nc4cccc(F)c4)cc23)cc1OC,inactive
23,O=C(COC(=O)c1cc(-c2ccccn2)nc2ccccc12)Nc1ncc(C(F)(F)F)cc1Cl,inactive

row,SMILES,Potency
1,CCc1ccc(NC(=O)c2ccc3c(c2)nnn3CC)cc1,"inconclusive: 15.8 µM [inhibitor, partial curve]"
2,COc1ccc(C(=O)N/N=C/C(Br)=C/c2ccccc2)cc1,"inconclusive: 0.891 µM [inhibitor, partial curve]"
3,CCOc1ccc(-c2nc(SC(C(C)=O)C(=O)N(C)C)c3c(=O)n(C)c(=O)n(C)c3n2)cc1 (centres undefined),inactive
4,C=CCOC(=O)N[C@H](/C(C(=O)OC)=C(\C)NCc1ccccc1)c1ccc(C)cc1,"inconclusive: 7.94 µM [inhibitor, single point]"
5,COc1ccc(C2N(c3ccc(C)cc3)CCN2c2ccc(C)cc2)cc1O,"inconclusive: 22.4 µM [inhibitor, partial curve]"
6,Cc1ccc(C(=O)Nc2ccc(NC(=O)c3cccs3)cc2)cc1C,"inconclusive: 0.0631 µM [inhibitor, full curve, poor fit]"
7,Cc1ccc(Cl)cc1N1CCN(Cc2nc3c(c(=O)[nH]c(=O)n3C)n2Cc2ccccc2F)CC1,"inconclusive: 10 µM [inhibitor, partial curve]"
8,O=C1c2ccccc2C(O)(c2ccccc2)N1C1CC1 (centres undefined),inactive
9,Cc1ccc(C)c(N2CCN(CCCNC(=O)c3cnn(-c4ccccc4Cl)c3C3CCN(C(=O)OC(C)(C)C)CC3)CC2)c1,"inconclusive: 20 µM [inhibitor, partial curve]"
10,Cc1cc(=O)[nH]c(SCC(=O)Nc2ccc(Br)cc2)c1C#N,"inconclusive: 44.7 µM [inhibitor, single point]"
11,CC1CCCCC1NC(=O)COC(=O)/C=C/c1ccc2c(c1)OCO2 (centres undefined),"inconclusive: 15.8 µM [inhibitor, partial curve]"
12,CCCn1c(=O)[nH]c(=O)c2c1nc(-c1ccc(OC(F)(F)C(F)C(F)(F)F)cc1)n2CCOC (centres undefined),"inconclusive: 35.5 µM [inhibitor, partial curve]"
13,Cc1ccc(-c2nc3n(n2)C(=O)CC(c2ccc(Cl)cc2)S3)cc1 (centres undefined),"inconclusive: 22.4 µM [inhibitor, single point]"
14,Cc1ccc(OCC(=O)OCc2cc(=O)n3nc(-c4cccs4)sc3n2)cc1C,"inconclusive: 1.41 µM [inhibitor, partial curve]"
15,CN(C)c1ccc(-c2nc3ccccc3c(=O)[nH]2)cc1,"inconclusive: 14.1 µM [inhibitor, partial curve]"
16,O=C(c1ccc(Br)cc1)N1CCCC1,inactive
17,O=C(c1ccc(C(F)(F)F)cc1)N1CCCCC1,inactive
18,O=C1/C(=C/c2ccco2)CCC1C1CCCC1 (centres undefined),"inconclusive: 39.8 µM [inhibitor, single point]"
19,O=C(CSCc1cccc(Br)c1)N=Nc1c(O)[nH]c2ccccc12,"inconclusive: 25.1 µM [inhibitor, partial curve]"
20,CN(C)S(=O)(=O)c1ccc(C(=O)Nc2nnc(-c3ccc4c(c3)CCCC4)o2)cc1,"inconclusive: 12.6 µM [inhibitor, partial curve, poor fit]"
21,O=C1NC(=Nc2ccc(Cl)cc2)/C(=C/c2ccco2)S1,"inconclusive: 25.1 µM [inhibitor, partial curve]"
22,COc1ccc(C2c3ccc4ccccc4c3Oc3ncn(Cc4ccco4)c(=N)c32)cc1OC (centres undefined),"inconclusive: 25.1 µM [inhibitor, single point]"
23,COc1ccc(NC(=O)c2sccc2C)c([N+](=O)[O-])c1,"inconclusive: 7.08 µM [inhibitor, partial curve]"
